From PubChem BioAssay AID485294 (National Center for Advancing Translational Sciences (NCATS), 2010)
Hit rate of the full screen: of about 370,000 compounds, about 150 (0.041%) were called active. This list was built around the results that the source calls inconclusive (neither active nor inactive); the mix of calls is not that of the screen. The call rests on the fitted dose curve; in most records, active means well fitted inhibition curve with a large enough effect; inconclusive means small, poorly fitted or top-dose-only effect; inactive means flat fitted curve, though single readings scatter. No potency is given beside an inconclusive call; the fits are too rough.

Biological target: Beta-lactamase (Escherichia coli (strain K12)) (UniProt P00811)
Chain of UniProt P00811 (P00811 whole entry, looked up): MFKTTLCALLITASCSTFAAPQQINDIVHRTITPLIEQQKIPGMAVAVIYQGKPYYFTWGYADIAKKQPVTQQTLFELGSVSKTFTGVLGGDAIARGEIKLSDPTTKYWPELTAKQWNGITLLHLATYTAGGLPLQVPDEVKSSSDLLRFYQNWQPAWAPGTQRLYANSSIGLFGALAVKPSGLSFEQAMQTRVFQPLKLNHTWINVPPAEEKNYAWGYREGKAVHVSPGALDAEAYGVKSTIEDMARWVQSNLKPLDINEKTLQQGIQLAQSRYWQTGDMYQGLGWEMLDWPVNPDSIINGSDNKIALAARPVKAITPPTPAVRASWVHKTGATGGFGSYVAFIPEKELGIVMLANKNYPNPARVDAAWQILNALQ
Experiment: qHTS Inhibitors of AmpC Beta-Lactamase (assay with detergent); further: nearly all actives have a fitted effect of over 25% in size;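 on activity change, negative = inhibition: 0% = no-compound wells and -100% = no-enzyme wells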
Conditions: AmpC hydrolysis of nitrocefin, absorbance 480 nm, 0.01% Triton; activity change, negative = inhibition: at 114 µM (top of the series)
Procedure, shortened: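 20 mM phosphate pH 7.0 + 0.01% (detergent screen) or 0.0001% Triton X-100; 5.3 nM AmpC reagent; cpd preinc 15 min RT; nitrocefin (800 uM stock) to start; A480 q20 s × 4 min; Activity was normalised to no-enzyme and no-compound control wells.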
Potency means the concentration at half of the fitted maximal effect; tags describe the fitted curve by direction and shape.

| Structure (SMILES) | activity change, negative = inhibition | Potency |
| --- | --- | --- |
| COc1ccc(NC(=O)CCS(=O)(=O)c2cc(Br)cc3c2N(C(C)=O)CC3)c(OC)c1 | inactive: 0.417% | – |
| CCCCC(=O)NC(c1ccc([N+](=O)[O-])cc1)c1c(O)ccc2ccccc12 (centres undefined) | – | inconclusive [inhibitor, full curve] |
| COC(=O)c1cc(Br)c(=O)n(CCc2ccccc2)c1 | – | inconclusive [inhibitor, full curve] |
| Cc1ccc(NC(=O)CCc2nnc3ccc(N4CCOCC4)nn23)cc1C | inactive: -6.69% | – |
| CCCCN(C1CCS(=O)(=O)C1)S(=O)(=O)c1cccs1 (centres undefined) | – | inconclusive [inhibitor, full curve, poor fit] |
| Nc1cc2nsnc2cc1Br | – | inconclusive [inhibitor, full curve] |
| CN(C(=O)CSc1nc2ccc(NC(=O)c3ccc(F)cc3)cc2s1)c1ccccc1 | inactive: -0.951% | – |
| Cc1ccc(NC(=O)c2ccc(-c3nn(C)c(=O)c4ccccc34)cc2)c(C)c1 | – | inconclusive [inhibitor, full curve, poor fit] |
| O=C(CCCN1C(=O)/C(=C/c2ccccc2)SC1=S)Nc1ccc(O)cc1 | – | inconclusive [inhibitor, single point] |
| COCCCN(C(=O)Nc1ccccc1)C(C)c1ccncc1 (centres undefined) | – | inconclusive [inhibitor, full curve, poor fit] |
| C/C(=N\NC(=O)c1cc(-c2ccccc2C)nc2ccccc12)c1cccnc1 | – | inconclusive [inhibitor, partial curve, poor fit] |
| CC[C@H](C)[C@@H](NC(=O)O[C@@H]1C(=O)c2cc(Br)ccc2O[C@H]1c1ccc2c(c1)OCO2)C(=O)OC | inactive: -8.16% | – |
| CC(C)c1ccc(O)c(N)c1 | inactive: -3.35% | – |
| COc1ccc(NC(=O)/C=C/c2ccco2)cn1 | inactive: -7.22% | – |
| CCn1ncc(CN2CCCC(C(=O)Nc3cccc(-c4cc5ccccc5[nH]4)c3)C2)c1C (centres undefined) | inactive: -6.86% | – |
| Cc1ccc(/C=N/NC(=O)c2cccc([N+](=O)[O-])c2)o1 | – | inconclusive [inhibitor, single point] |
| Cc1c(C(=O)N(C)C)sc2c1c(=O)n(-c1ccc(Cl)c(Cl)c1)c(=O)n2Cc1ccc(F)cc1 | inactive: 7.19% | – |
| O=C(/C=C/c1ccc(S(=O)(=O)NCc2ccco2)cc1)NCc1cccc(Cl)c1 | – | inconclusive [inhibitor, full curve, poor fit] |
| Nc1ccc(-c2nnn(Cc3ccccc3F)n2)cc1 | – | inconclusive [inhibitor, single point] |
| COc1ccc(N(CCCN2C(=O)c3cccc4cccc(c34)C2=O)C(=O)c2cccs2)cc1 | – | inconclusive [inhibitor, partial curve, poor fit] |
| Cc1ccc(C(C)C)c(OCC(=O)Nc2ccc3c(c2)nc(CCN2CCCCC2)n3C)c1 | – | inconclusive [inhibitor, full curve, poor fit] |
| Cc1csc2nc(CNS(=O)(=O)c3ccc4c(c3)OCCO4)cn12 | – | inconclusive [inhibitor, full curve, poor fit] |
| O=C(CN1Cc2ccccc2C1=O)Nc1ccc2c(c1)OCCO2 | inactive: 0.274% | – |

| Structure (SMILES) | activity change, negative = inhibition | Potency |
| --- | --- | --- |
| CC(=O)N1CCN(C(=O)c2c(-c3ccccc3)noc2C)CC1 | – | inconclusive [inhibitor, full curve, poor fit] |
| CCc1ccc(NC(=O)CN2C(=O)C(=O)c3ccccc32)cc1 | inactive: 27.1% | – |
| O=C(Nc1cccc(Cl)c1)N1Cc2ccccc2Oc2ncccc21 | inactive: 2.76% | – |
| CCOc1ccc(N(CC(=O)Nc2cccc(OC)c2)S(=O)(=O)c2c(C)noc2C)cc1 | – | inconclusive [inhibitor, full curve, poor fit] |
| Cc1ccc(C(=O)NCC(=O)OC(C)C(=O)Nc2ccc(N3CCOCC3)cc2)s1 (centres undefined) | inactive: 4.19% | – |
| C=C1CCC2C(C)(C)[C@H](O)CC[C@@]2(C)[C@@H]1COc1cc(=O)oc2ccccc12 (some centres undefined) | – | inconclusive [inhibitor, full curve, poor fit] |
| CN1CC[C@@]23CCCC[C@@H]2[C@@H]1Cc1ccc(O)cc13 | – | inconclusive [inhibitor, full curve] |
| COCC(C)NC(=S)NCCc1ccc(Cl)cc1Cl (centres undefined) | – | inconclusive [inhibitor, single point] |
| CCN(CC)CCN(Cc1cc2cc3c(cc2[nH]c1=O)OCO3)C(=S)NCc1ccco1 | inactive: 0.411% | – |
| O=C(COC(=O)C(c1ccccc1)c1ccccc1)NCc1ccco1 | inactive: 0.154% | – |
| CCCOc1ccc(NC(=O)CC2C(=O)N(c3cccc(OC)c3)C(=O)N2CCc2ccncc2)cc1 (centres undefined) | inactive: 11.7% | – |
| CCC1Sc2ccccc2N(CC(=O)NC2CCCC2)C1=O (centres undefined) | – | inconclusive [inhibitor, full curve, poor fit] |
| CCOC(=O)c1cc2occc2n1CC(=O)N1CCOCC1 | – | inconclusive [inhibitor, partial curve, poor fit] |
| Cc1cc(C)cc(N(CC(=O)Nc2ccccc2-c2ccccc2)S(=O)(=O)c2ccccc2)c1 | inactive: -4.21% | – |
| CC(C)C(=O)Nc1ccc(N2CCCC2)c(Cl)c1 | inactive: -5.13% | – |
| Cc1c(NC(=O)C(C)OC(=O)CCOc2ccccc2)c(=O)n(-c2ccccc2)n1C (centres undefined) | – | inconclusive [inhibitor, partial curve, poor fit] |
| CCC(=NCCCO)c1c(O)n(-c2ccc(OC)cc2)c(=O)[nH]c1=O | – | inconclusive [inhibitor, full curve] |
| Cc1ccc(C(=O)C(C)OC(=O)CNC(=O)c2ccc(Br)o2)cc1 (centres undefined) | – | inconclusive [inhibitor, partial curve] |
| CCN1CCN(c2cc(C)c3cc(NC(=O)c4cccnc4Cl)ccc3n2)CC1 | – | inconclusive [inhibitor, partial curve, poor fit] |
| O=C(Nc1ccc2c(c1)OCO2)C1CC(c2ccccc2Cl)=NO1 (centres undefined) | – | inconclusive [inhibitor, full curve, poor fit] |
| Cc1ccc(N=CC2=C(O)CC(c3ccccc3Cl)CC2=O)cc1 (centres undefined) | – | inconclusive [inhibitor, partial curve, poor fit] |
| CCCCC(=O)Nc1cccc(-c2nnc(-c3ccccc3)o2)c1 | inactive: -8.55% | – |
| COc1ccc(C(CCN2CCCC2)c2c(OC)cc(OC)c3c(-c4ccccc4)cc(=O)oc23)cc1 (centres undefined) | inactive: 6.96% | – |

| Structure (SMILES) | activity change, negative = inhibition | Potency |
| --- | --- | --- |
| O=C(NC(=S)Nc1ccc2cn[nH]c2c1)c1ccccc1 | inactive: -11.1% | – |
| CN(CC(=O)Nc1ccc(N2CCOCC2)cc1)C(=O)c1ccc(O)c(Cl)c1 | – | inconclusive [inhibitor, partial curve] |
| O=C(CCN1CCN(S(=O)(=O)c2cccc([N+](=O)[O-])c2)CC1)Nc1ccccc1F | – | inconclusive [inhibitor, single point] |
| Cc1ccc(S(=O)(=O)C2(C(=O)Nc3nccs3)CC2)cc1 | – | inconclusive [inhibitor, partial curve, poor fit] |
| CC1CCCCC12NC(=O)N(CC(=O)Nc1ccccc1-c1ccccc1)C2=O (centres undefined) | – | inconclusive [inhibitor, partial curve] |
| COc1ccc(N2C(=O)C3CCCN3C2c2ccccc2OC)cc1 (centres undefined) | – | inconclusive [inhibitor, full curve] |
| Cc1cccc(C(=O)N2CCN(Cc3ccc4c(c3)OCO4)CC2)c1 | – | inconclusive [inhibitor, full curve, poor fit] |
| CC(C)NC(=O)C(=O)NC1CCCCCC1 | – | inconclusive [inhibitor, full curve, poor fit] |
| Cc1ccc(SC(CC(=O)c2ccc(C(C)(C)C)cc2)C(=O)O)cc1 (centres undefined) | – | inconclusive [inhibitor, single point] |
| CN(C)S(=O)(=O)c1cccc(COC(=O)c2cccnc2Cl)c1 | – | inconclusive [inhibitor, full curve, poor fit] |
| COc1ccc(OCC(=O)N2CCN(C(=O)COc3ccc(Br)cc3)CC2)cc1 | – | inconclusive [inhibitor, partial curve, poor fit] |
| COc1cc(CN(C(=S)NCC(=O)NC2CC2)C2CCCC2)cc(OC)c1OC | – | inconclusive [inhibitor, partial curve, poor fit] |
| CCOC(=O)c1nnn(-c2nonc2-n2cccc2)c1CN1CCC(C)CC1 | – | inconclusive [inhibitor, partial curve] |
| O=C(CS(=O)(=O)c1cn(Cc2ccc(Cl)cc2)c2ccccc12)N1CCOCC1 | – | inconclusive [inhibitor, single point] |
| Cc1ccc(NC(=O)CNC(=O)c2ccco2)nc1 | inactive: 2.32% | – |
| CC1CCN(C(C(=O)NC2CCCCC2)c2cc3c(cc2[N+](=O)[O-])OCO3)CC1 (centres undefined) | inactive: -19.2% | – |
| O=C(COC(=O)CCSc1ccccc1Cl)NCc1ccco1 | inactive: -4.14% | – |
| c1ccc(-c2noc(C3CCC3)n2)nc1 | inactive: -0.233% | – |
| COc1ccc(CCNC(=O)Cn2nnc(-c3ccccc3F)n2)cc1OC | inactive: -11.5% | – |
| CCN(CC)S(=O)(=O)c1ccc(C)c(NC(=O)/C=C/c2cccs2)c1 | – | inconclusive [inhibitor, full curve, poor fit] |
| O=C(c1ccc(NS(=O)(=O)c2ccc(Cl)c(Cl)c2)cc1)N1CCOCC1 | – | inconclusive [inhibitor, partial curve] |
| NC(=O)C1CCN(C2CC(=O)N(c3cccc(F)c3)C2=O)CC1 (centres undefined) | – | inconclusive [inhibitor, single point] |
| O=C(C1CCC1)N1CCc2cc(S(=O)(=O)NCCCN3CCCCC3)ccc21 | – | inconclusive [inhibitor, full curve, poor fit] |
